Laboratory results as given in PMC5693993.
Results are given in words; binding and its absence hold for the method and conditions named. In cells and extracts the contact can be indirect. Some binding calls cover weakened binding; strength is not graded here.

T1: TNF receptor-associated factor 6 (TRAF6) (mouse (endogenous in BM-pDCs)) (UniProt P70196)
T1 sequence: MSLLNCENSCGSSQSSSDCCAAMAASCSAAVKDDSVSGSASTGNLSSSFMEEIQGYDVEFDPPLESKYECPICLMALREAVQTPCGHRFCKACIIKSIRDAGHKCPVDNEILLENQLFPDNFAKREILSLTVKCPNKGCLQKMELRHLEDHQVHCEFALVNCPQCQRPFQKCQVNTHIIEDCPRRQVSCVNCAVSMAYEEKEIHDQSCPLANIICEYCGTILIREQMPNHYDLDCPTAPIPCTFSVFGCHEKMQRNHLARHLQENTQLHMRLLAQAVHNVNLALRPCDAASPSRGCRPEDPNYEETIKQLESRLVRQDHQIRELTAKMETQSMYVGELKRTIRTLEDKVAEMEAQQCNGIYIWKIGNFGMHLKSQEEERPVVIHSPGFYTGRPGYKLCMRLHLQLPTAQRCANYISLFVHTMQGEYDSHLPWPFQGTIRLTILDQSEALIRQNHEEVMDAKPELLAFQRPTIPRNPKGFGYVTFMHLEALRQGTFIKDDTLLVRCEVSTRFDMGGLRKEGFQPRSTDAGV

T2: TRAF3 (mouse (endogenous in BM-pDCs)) (UniProt Q60803)
T2 sequence: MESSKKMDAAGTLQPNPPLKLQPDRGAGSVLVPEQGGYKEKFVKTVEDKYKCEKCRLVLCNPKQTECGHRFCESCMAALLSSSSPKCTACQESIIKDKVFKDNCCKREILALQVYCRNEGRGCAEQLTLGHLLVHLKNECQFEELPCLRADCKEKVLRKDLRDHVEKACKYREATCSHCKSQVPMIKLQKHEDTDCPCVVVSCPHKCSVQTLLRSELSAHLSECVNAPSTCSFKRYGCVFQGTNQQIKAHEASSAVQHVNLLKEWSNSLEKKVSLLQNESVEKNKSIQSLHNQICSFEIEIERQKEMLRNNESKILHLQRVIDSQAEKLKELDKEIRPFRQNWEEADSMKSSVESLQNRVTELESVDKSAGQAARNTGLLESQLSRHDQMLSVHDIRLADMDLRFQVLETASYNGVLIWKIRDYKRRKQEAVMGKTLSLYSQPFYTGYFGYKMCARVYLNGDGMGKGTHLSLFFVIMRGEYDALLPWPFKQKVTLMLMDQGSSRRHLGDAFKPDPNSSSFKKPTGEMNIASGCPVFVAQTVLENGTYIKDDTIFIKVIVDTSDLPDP


Legend:
[1] = molecular target: T1, TNF receptor-associated factor 6 (TRAF6) (mouse (endogenous in BM-pDCs)); assay: co-IP; WT BM-pDCs stimulated with 25 μg/mL polyU for the indicated times, lysed, immunoprecipitation with Ab against TRAF6 or goat IgG control; immunoblot
[2] = molecular target: T1, TNF receptor-associated factor 6 (TRAF6) (mouse (endogenous in BM-pDCs)); assay: co-IP; Arl8b Gt/Gt BM-pDCs stimulated with 25 μg/mL polyU for the indicated times, lysed, immunoprecipitation with Ab against TRAF6 or goat IgG control; immunoblot
[3] = molecular target: T2, TRAF3 (mouse (endogenous in BM-pDCs)); assay: co-IP; WT or Arl8b Gt/Gt BM-pDCs, unstimulated or stimulated with 25 μg/mL polyU, immunoprecipitation with Ab against TRAF3 or rabbit IgG control; immunoblot

Row | Binder | binding [1] | binding [2] | binding [3]
1 | interferon regulatory factor 7 (IRF7) (protein, UniProt P70434 1-457) MAEVRGVQRVLFGDWLLGEVSSGQYEGLQWLNEARTVFRVPWKHFGRRDLDEEDAQIFKAWAVARGRWPPSGVNLPPPEAEAAERRERRGWKTNFRCALHSTGRFILRQDNSGDPVDPHKVYELSRELGSTVGPATENREEVSLSNALPTQGVSPGSFLARENAGLQTPSPLLSSDAGDLLLQVLQYSHILESESGADPVPPQAPGQEQDRVYEEPYAAWQVEAVPSPRPQQPALTERSLGFLDVTIMYKGRTVLQAVVGHPRCVFLYSPMAPAVRTSEPQPVIFPSPAELPDQKQLHYTETLLQHVSPGLQLELRGPSLWALRMGKCKVYWEVGSPMGTTGPSTPPQLLERNRHTPIFDFSTFFRELEEFRARRRQGSPHYTIYLGFGQDLSAGRPKEKTLILVKLEPWVCKAYLEGVQREGVSSLDSSSLGLCLSSTNSLYEDIEHFLMDLGQWP | binds | no binding (condition: in Arl8b Gt/Gt pDCs) | 
2 | IKKα (enzyme, UniProt Q60680 1-745) MERPPGLRPGAGGPWEMRERLGTGGFGNVSLYQHRELDLKIAIKSCRLELSSKNRERWCHEIQIMKKLDHANVVKACDVPEELNFLINDVPLLAMEYCSGGDLRKLLNKPENCCGLKESQILSLLSDIGSGIRYLHENKIIHRDLKPENIVLQDVGGKTIHKIIDLGYAKDVDQGSLCTSFVGTLQYLAPELFENKPYTATVDYWSFGTMVFECIAGYRPFLHHLQPFTWHEKIKKKDPKCIFACEEMTGEVRFSSHLPQPNSLCSLIVEPMESWLQLMLNWDPQQRGGPIDLTLKQPRCFALMDHILNLKIVHILNMTSAKIISFLLPCDESLHSLQSRIERETGINTGSQELLSETGISLDPRKPASQCVLDGVRGCDSYMVYLFDKSKTVYEGPFASRSLSDCVNYIVQDSKIQLPIIQLRKVWAEAVHYVSGLKEDYSRLFQGQRAAMLSLLRYNANLTKMKNTLISASQQLKAKLEFFRKSIQLDLERYSEQMTYGISSEKMLKAWKEMEEKAIHYSEVGVIGYLEDQIMSLHTEIMELQKSPYGRRQGDLMESLEQRAIDLYKQLKHRPPDHLYSDSTEMVKIIVHTVQSQDRVLKELFGHLSKLLGCKQKIIDLLPKVEVALSNIKEADNTVMFMQGKRQKEIWHLLKIACTQSSARSLVGSSLEGTVTPPVSAWLPPTLADREHPLTCVVTPQDGETLAQMIEENLNCLGHLSTIIREANEDQSSSLMSLDWSWLAE |  |  | binds
